# Reference: the supplement of paper PMC8728848
# The other results are listed elsewhere or left out.
# Legend:
# Assay in all cases: glycan array binding signal (z-score within array); higher = stronger binding
# Conditions in all cases: glycan notation: IUPAC condensed, linker removed
# Gal(b1-6)Gal = target: Gal(b1-6)Gal
# Summary of the method: (§1)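 Columns mapping to the same glycan were averaged after glycan names were converted to IUPAC-condensed notation. The data come from 3228 arrays in the Consortium for Functional Glycomics database, limited to those with an available protein sequence. Binding is reported as a within-array Z-score averaged across arrays of one protein sequence and across linkers.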
# Gal3S(b1-3)GalNAc = target: Gal3S(b1-3)GalNAc
# Summary of the method: as §1
# Gal3S(b1-3)GlcNAc = target: Gal3S(b1-3)GlcNAc
# Summary of the method: as §1
# [1] = target: Gal3S(b1-3)[Fuc(a1-4)]GlcNAc
# Summary of the method: as §1
# Gal3S(b1-4)Glc = target: Gal3S(b1-4)Glc
# Summary of the method: as §1
# Gal3S(b1-4)Glc6S = target: Gal3S(b1-4)Glc6S
# Summary of the method: as §1
# Gal3S(b1-4)GlcNAc = target: Gal3S(b1-4)GlcNAc
# Summary of the method: as §1
# Gal3S(b1-4)GlcNAc6S = target: Gal3S(b1-4)GlcNAc6S
# Summary of the method: as §1
# [2] = target: Gal3S(b1-4)[Fuc(a1-3)]Glc
# Summary of the method: as §1
# [3] = target: Gal3S(b1-4)[Fuc(a1-3)]Glc6S
# Summary of the method: as §1
# [4] = target: Gal3S(b1-4)[Fuc(a1-3)]GlcNAc
# Summary of the method: as §1
# [5] = target: Gal3S(b1-4)[Fuc(a1-3)]GlcNAc6S
# Summary of the method: as §1
# Gal3S4S(b1-4)GlcNAc = target: Gal3S4S(b1-4)GlcNAc
# Summary of the method: as §1
# Gal3S6S(b1-4)GlcNAc = target: Gal3S6S(b1-4)GlcNAc
# Summary of the method: as §1
# Gal3S6S(b1-4)GlcNAc6S = target: Gal3S6S(b1-4)GlcNAc6S
# Summary of the method: as §1
# Gal4S(b1-4)GlcNAc = target: Gal4S(b1-4)GlcNAc
# Summary of the method: as §1
# Gal4S6S(b1-4)GlcNAc = target: Gal4S6S(b1-4)GlcNAc
# Summary of the method: as §1
# Gal6P(b1-4)GlcNAc = target: Gal6P(b1-4)GlcNAc
# Summary of the method: as §1
# Gal6S(b1-3)GlcNAc = target: Gal6S(b1-3)GlcNAc
# Summary of the method: as §1
# Gal6S(b1-3)GlcNAc6S = target: Gal6S(b1-3)GlcNAc6S
# Summary of the method: as §1
# Gal6S(b1-4)Glc = target: Gal6S(b1-4)Glc
# Summary of the method: as §1
# Gal6S(b1-4)Glc6S = target: Gal6S(b1-4)Glc6S
# Summary of the method: as §1
# Gal6S(b1-4)GlcNAc = target: Gal6S(b1-4)GlcNAc
# Summary of the method: as §1
# Gal6S(b1-4)GlcNAc6S = target: Gal6S(b1-4)GlcNAc6S
# Summary of the method: as §1
# GalNAc(a1-3)Gal = target: GalNAc(a1-3)Gal
# Summary of the method: as §1
# GalNAc(a1-3)GalNAc = target: GalNAc(a1-3)GalNAc
# Summary of the method: as §1
# [6] = target: GalNAc(a1-3)GalNAc(a1-3)Gal(a1-4)Gal(b1-4)GlcNAc
# Summary of the method: as §1
# [7] = target: GalNAc(a1-3)GalNAc(b1-3)Gal(a1-4)Gal(b1-4)Glc
# Summary of the method: as §1
# [8] = target: GalNAc(a1-3)GalNAc(b1-3)Gal(a1-4)Gal(b1-4)GlcNAc
# Summary of the method: as §1
# GalNAc(b1-3)Gal = target: GalNAc(b1-3)Gal
# Summary of the method: as §1
# [9] = target: GalNAc(b1-3)Gal(a1-4)Gal(b1-4)GlcNAc
# Summary of the method: as §1
# [10] = target: GalNAc(b1-3)Gal(a1-4)Gal(b1-4)GlcNAc(b1-3)Gal(b1-4)Glc
# Summary of the method: as §1
# [11] = target: GalNAc(b1-3)Gal(a1-6)Gal(b1-4)Glc
# Summary of the method: as §1
# GalNAc(b1-3)GalNAc = target: GalNAc(b1-3)GalNAc
# Summary of the method: as §1
# GalNAc(b1-3)GlcNAc = target: GalNAc(b1-3)GlcNAc
# Summary of the method: as §1
# GalNAc(b1-4)Gal(b1-4)Glc = target: GalNAc(b1-4)Gal(b1-4)Glc
# Summary of the method: as §1
# GalNAc(b1-4)GlcNAc = target: GalNAc(b1-4)GlcNAc
# Summary of the method: as §1
# [12] = target: GalNAc(b1-4)GlcNAc(b1-2)Man
# Summary of the method: as §1
# [13] = target: GalNAc(b1-4)GlcNAc(b1-2)Man(a1-3)[GalNAc(b1-4)GlcNAc(b1-2)Man(a1-6)]Man(b1-4)GlcNAc(b1-4)GlcNAc
# Summary of the method: as §1
# [14] = target: GalNAc(b1-4)GlcNAc(b1-3)GalNAc(b1-4)GlcNAc
# Summary of the method: as §1
# GalNAc(b1-4)GlcNAc6S = target: GalNAc(b1-4)GlcNAc6S
# Summary of the method: as §1
# GalNAc(b1-6)GalNAc = target: GalNAc(b1-6)GalNAc
# Summary of the method: as §1
# GalNAc3S(b1-4)GlcNAc = target: GalNAc3S(b1-4)GlcNAc
# Summary of the method: as §1
# GalNAc3S(b1-4)GlcNAc3S = target: GalNAc3S(b1-4)GlcNAc3S
# Summary of the method: as §1
# [15] = target: GalNAc3S(b1-4)[Fuc(a1-3)]GlcNAc
# Summary of the method: as §1
# GalNAc4S6S(b1-4)GlcNAc = target: GalNAc4S6S(b1-4)GlcNAc
# Summary of the method: as §1
# GalNAc6S(b1-4)GlcNAc = target: GalNAc6S(b1-4)GlcNAc
# Summary of the method: as §1
# Glc(a1-4)Glc = target: Glc(a1-4)Glc
# Summary of the method: as §1
# [16] = target: Glc(a1-4)Glc(a1-4)Glc(a1-4)Glc
# Summary of the method: as §1
# Glc(a1-6)Glc(a1-6)Glc = target: Glc(a1-6)Glc(a1-6)Glc
# Summary of the method: as §1
# [17] = target: Glc(a1-6)Glc(a1-6)Glc(a1-6)Glc
# Summary of the method: as §1
# Glc(b1-4)Glc = target: Glc(b1-4)Glc
# Summary of the method: as §1
# Glc(b1-6)Glc = target: Glc(b1-6)Glc
# Summary of the method: as §1
# GlcA(b1-3)Gal = target: GlcA(b1-3)Gal
# Summary of the method: as §1
# GlcA(b1-3)GlcNAc = target: GlcA(b1-3)GlcNAc
# Summary of the method: as §1
# GlcA(b1-6)Gal = target: GlcA(b1-6)Gal
# Summary of the method: as §1
# [18] = target: GlcA3S(b1-3)Gal(b1-4)GlcNAc(b1-2)Man
# Summary of the method: as §1
# [19] = target: GlcA3S(b1-3)Gal(b1-4)GlcNAc(b1-3)Gal(b1-4)Glc
# Summary of the method: as §1
# [20] = target: GlcNAc(a1-3)Gal(b1-4)GlcNAc
# Summary of the method: as §1
# [21] = target: GlcNAc(a1-4)Gal(b1-3)GlcNAc
# Summary of the method: as §1
binder,measurement,setting,value
"Epa1-NP (Candida glabrata), Q6VBJ0 (protein) MILNPALFLNKCVCIYTTLILLLLTNGGYATSSNDISLASKDPTTFPLGCSPDITTPKKGLSMELYSYDFRKKGSYPCWDAAYLDPNYPRTGYKSHRLLAKVDGVTGNINFYYHATKGCTPQLGHLPASYNYPKPLTMTNFTMLLYGYFRPKVTGFHTFTISADDLLFVNFGAGNAFDCCRRDSSADHFGNYQAYAIWGSKTAKDELTVHLDAGVYYPIRLFYNNREYDGALSFTFKTESNENTVSDFSEYFFSLDDTEEGCPGLISYDSSCASVKTSKIIGIDYHTETPNENLVPITKTIYHLGIPCTGTTTTPLCGSGFYDPLANKCVTINTSSTSSVTKTTSHTTSKEVSFHSSISSQKTLIPKSIPSPYGPIKSQSIPTEMETSSEISSSEYAFSDVISTPSHSPYTKKHSSLNSSSYTSTVIHSLTSYSISQGIFSTSLSEQNITSKSSTDKFSTATSMSNNITQSSIIISQFSTNNENYTTTSMHTSSDKISTETLNNSISTTTSILFSNSSTILKNNTTIISSDKDTHYHPVNPTIVCSTNKTEIICASITQPSISNSNNHWSSSVLKFNSTTVRSTLPSSAGSNETSINVPFSSSTESNTSTSSTSTSNSKMVRSTLPSSAGSNETSISVPFSSSTESNTSTSSTSTSNSKMVRSTLPSSAGSNETSINVPFSSSTESNTSTSSTSTSNSKTVRSTPFSSAGIIMTSLSQRNNKSASSYASSNSKCYNTADSCRKVHSTPSYLLTSSYTSEGVDYDCSLVSTKLKINDTNCVNNKHTTKSCLKTSVTTTIPTLEIKTARKSSSNTIGLHSYPTSSPNKSISSAPIIGYISSFKTIKTASPSYQTSDLTTITTITSLNNPGSTAVENTHESNDKSRKTSSNDISSKHSVIKETKDAVESSNKSHQTNTLKCSSIIIASSSHNSYESLGGTTLTLTLSKVYSPQNNDTLPFLEISEVNPSRTVLPESSKMMQYLTSTEERNKTARNTIATNIVSISTFHFEGEGNAIRMGYTQLLLMLIGIIVMNIGT",glycan array binding signal (z-score),Gal(b1-6)Gal,0.16
same,glycan array binding signal (z-score),Gal3S(b1-3)GalNAc,-0.313
same,glycan array binding signal (z-score),Gal3S(b1-3)GlcNAc,-0.296
same,glycan array binding signal (z-score),[1],-0.293
same,glycan array binding signal (z-score),Gal3S(b1-4)Glc,-0.328
same,glycan array binding signal (z-score),Gal3S(b1-4)Glc6S,-0.32
same,glycan array binding signal (z-score),Gal3S(b1-4)GlcNAc,-0.335
same,glycan array binding signal (z-score),Gal3S(b1-4)GlcNAc6S,-0.293
same,glycan array binding signal (z-score),[2],-0.286
same,glycan array binding signal (z-score),[3],-0.129
same,glycan array binding signal (z-score),[4],-0.295
same,glycan array binding signal (z-score),[5],-0.351
same,glycan array binding signal (z-score),Gal3S4S(b1-4)GlcNAc,-0.285
same,glycan array binding signal (z-score),Gal3S6S(b1-4)GlcNAc,-0.33
same,glycan array binding signal (z-score),Gal3S6S(b1-4)GlcNAc6S,-0.242
same,glycan array binding signal (z-score),Gal4S(b1-4)GlcNAc,-0.333
same,glycan array binding signal (z-score),Gal4S6S(b1-4)GlcNAc,-0.306
same,glycan array binding signal (z-score),Gal6P(b1-4)GlcNAc,-0.287
same,glycan array binding signal (z-score),Gal6S(b1-3)GlcNAc,-0.227
same,glycan array binding signal (z-score),Gal6S(b1-3)GlcNAc6S,0.054
same,glycan array binding signal (z-score),Gal6S(b1-4)Glc,0.574
same,glycan array binding signal (z-score),Gal6S(b1-4)Glc6S,0.73
same,glycan array binding signal (z-score),Gal6S(b1-4)GlcNAc,0.471
same,glycan array binding signal (z-score),Gal6S(b1-4)GlcNAc6S,0.854
same,glycan array binding signal (z-score),GalNAc(a1-3)Gal,-0.301
same,glycan array binding signal (z-score),GalNAc(a1-3)GalNAc,-0.306
same,glycan array binding signal (z-score),[6],-0.273
same,glycan array binding signal (z-score),[7],-0.292
same,glycan array binding signal (z-score),[8],-0.289
same,glycan array binding signal (z-score),GalNAc(b1-3)Gal,-0.277
same,glycan array binding signal (z-score),[9],-0.325
same,glycan array binding signal (z-score),[10],-0.299
same,glycan array binding signal (z-score),[11],-0.294
same,glycan array binding signal (z-score),GalNAc(b1-3)GalNAc,-0.293
same,glycan array binding signal (z-score),GalNAc(b1-3)GlcNAc,-0.289
same,glycan array binding signal (z-score),GalNAc(b1-4)Gal(b1-4)Glc,-0.286
same,glycan array binding signal (z-score),GalNAc(b1-4)GlcNAc,-0.317
same,glycan array binding signal (z-score),[12],-0.279
same,glycan array binding signal (z-score),[13],-0.258
same,glycan array binding signal (z-score),[14],-0.291
same,glycan array binding signal (z-score),GalNAc(b1-4)GlcNAc6S,-0.288
same,glycan array binding signal (z-score),GalNAc(b1-6)GalNAc,-0.293
same,glycan array binding signal (z-score),GalNAc3S(b1-4)GlcNAc,-0.281
same,glycan array binding signal (z-score),GalNAc3S(b1-4)GlcNAc3S,-0.283
same,glycan array binding signal (z-score),[15],-0.287
same,glycan array binding signal (z-score),GalNAc4S6S(b1-4)GlcNAc,-0.285
same,glycan array binding signal (z-score),GalNAc6S(b1-4)GlcNAc,-0.284
same,glycan array binding signal (z-score),Glc(a1-4)Glc,-0.326
same,glycan array binding signal (z-score),[16],-0.294
same,glycan array binding signal (z-score),Glc(a1-6)Glc(a1-6)Glc,-0.338
same,glycan array binding signal (z-score),[17],-0.296
same,glycan array binding signal (z-score),Glc(b1-4)Glc,-0.318
same,glycan array binding signal (z-score),Glc(b1-6)Glc,-0.339
same,glycan array binding signal (z-score),GlcA(b1-3)Gal,-0.349
same,glycan array binding signal (z-score),GlcA(b1-3)GlcNAc,-0.271
same,glycan array binding signal (z-score),GlcA(b1-6)Gal,1.04
same,glycan array binding signal (z-score),[18],-0.283
same,glycan array binding signal (z-score),[19],-0.287
same,glycan array binding signal (z-score),[20],-0.317
same,glycan array binding signal (z-score),[21],-0.292
